PubChem BioAssay AID463173 (ICCB-Longwood Screening Facility, Harvard Medical School, 2010)
The whole screen tested about 52,000 compounds, of which about 4,300 (8.3%) were called active. No stated cut-off is given here; in the data, active means survival mostly below about 52% (no sharp cut-off); inactive means mostly above about 56%. This is one part of the list.

The compounds below were run on DeltatarO mutant (assay: S. aureus survival, RN4220 and DeltatarO strains – OD600, teichoic acid synthesis inhibitors, primary screen (AID 463173)). Conditions: S. aureus RN4220 wild type/DeltatarO growth, OD600, 18 h, active compounds read low, screened at 18.75 µg/mL (by protocol).

SMILES | survival
Cc1ccc2c(c1)-c1nc(-c3ccc(Cl)cc3)cc(-c3coc4ccccc4c3=O)c1CO2 | inactive: 130%
Cc1ccc2c(c1)N(CCC(=O)NCc1ccc(F)cc1)C(=O)CO2 | inactive: 62%
COc1cccc(CNC(=O)c2ccc(CSc3nc4ccncc4n3Cc3cccc(C)c3)cc2)c1 | inactive: 89%
CCOCCc1nn2c(=O)cc(COC(=O)CNC(=O)c3ccc(C(C)(C)C)cc3)nc2s1 | inactive: 113%
Cc1ccc(Cl)cc1N1CCN(S(=O)(=O)c2ccc3[nH]c4c(c3c2)CCCCC4)CC1 | inactive: 62%
COc1cc(NC(=O)CCc2c(C)nn(-c3ccc4nncn4n3)c2C)cc(OC)c1OC | inactive: 83%
COc1ccc2ncc(C(=O)O)c(NCCO)c2c1 | inactive: 69%
Fc1ccc(-n2ncc3c(NCCCN4CCOCC4)ncnc32)cc1 | inactive: 64%
Cn1ccnc1SCC(=O)n1c2c(c3ccccc31)CCCC2 | inactive: 100%
COc1cc(-c2nnc(SCCOc3ccc(Cl)cc3C)o2)cc(OC)c1OC | inactive: 104%
CCOC(=O)c1c(NC(=O)CSc2cn(CCNC(=O)c3ccccc3F)c3ccccc23)sc2c1CCC2 | inactive: 89%
COC(=O)c1cc(S(=O)(=O)NCC2CCN(Cc3ccc(F)cc3)CC2)cn1C | inactive: 109%
O=C(Nc1ccc2nc(SCC(=O)N3CCCc4ccccc43)sc2c1)c1cccc(F)c1 | inactive: 84%
Cc1cccc(OCC(=O)Nc2c(C)ccc3nsnc23)c1C | inactive: 98%
CCc1ccc(S(=O)(=O)c2nnn3c2nc(N2CCC(C)CC2)c2cc(Cl)ccc23)cc1 | inactive: 115%
O=C(Cn1nc(-c2ccc3c(c2)OCCO3)ccc1=O)Nc1ccc(N2CCOCC2)cc1 | inactive: 110%
COc1ccc(-c2cc(C(=O)NCc3cc(OC)c(OC)c(OC)c3)[nH]n2)cc1 | inactive: 74%
Cc1ccc(Cl)c2c1N[C@@H](c1ccc(C(=O)O)cc1)[C@H]1CC=C[C@@H]21 | active: -10%
O=C(CSc1ncc(S(=O)(=O)c2ccc(Br)cc2)c(=O)[nH]1)NCc1ccc(Cl)cc1 | inactive: 76%
Cc1ccc(C)c(NC(=O)CCN2C(=O)c3ccccc3Sc3ncccc32)c1 | inactive: 79%
O=C(Nc1ccccc1)C(Cc1ccccc1)N1Cc2ccccc2C1=O (centres undefined) | inactive: 77%
Cc1c(CC(=O)NCCc2ccccc2F)c(=O)oc2c(C)c3occ(C(C)(C)C)c3cc12 | inactive: 51%
O=C(NC(=S)NC1CC1)c1cccnc1 | inactive: 65%

SMILES | survival
COc1ccc(NC(=O)CSc2cn(CC(=O)N3CCOCC3)c3ccccc23)cc1OC | inactive: 87%
COc1cccc(N2CCN(C(=O)c3ccc4c(=O)n(CCc5ccccc5)c(=O)[nH]c4c3)CC2)c1 | inactive: 74%
CC(C)COC(=O)/C(C#N)=C\c1ccc(-c2ccccc2Cl)o1 | inactive: 67%
COc1ccccc1CNS(=O)(=O)c1cc(C(=O)Nc2cccc(C(F)(F)F)c2)ccc1F | inactive: 77%
COC(=O)Cn1c(O)c(N=NC(=O)c2ccc3c(c2)OCO3)c2ccccc21 | inactive: 80%
Cc1cccc(N2C(=O)CSC23C(=O)N(Cc2cccc(F)c2)c2ccccc23)c1 (centres undefined) | inactive: 95%
Cc1ccc(C)c(CSc2nc3ncccc3[nH]2)c1 | inactive: 73%
Cc1cccc(-c2noc(CN(C(=O)COc3ccc(C(C)C)cc3)C(C)C)n2)c1 | active: 11%
CCOC(=O)c1c(C)n(-c2ccccc2)c2ccc(OC(=O)c3ccccc3)cc12 | active: 3%
CCNc1nc(NC(C)CC)nc(ON=C(C)C)n1 (centres undefined) | inactive: 99%
COc1ccc(C2=NS(=O)(=O)N(C)C(C(=O)Nc3cc(C)ccc3O)=C2)cc1OC | inactive: 62%
Cc1nc(N2C(=O)c3oc4ccccc4c(=O)c3C2c2ccccc2F)sc1C (centres undefined) | inactive: 58%
O=C1CS/C(=N\N2CCOCC2)N1Cc1ccccc1 | inactive: 84%
COc1cccc(N2CCN(S(=O)(=O)c3cc(Br)cc4c3N(C(=O)C3CC3)CC4)CC2)c1 | inactive: 82%
COc1ccccc1C1C=C(c2ccc(F)cc2)Nc2nc(-c3ccc(Cl)cc3)nn21 (centres undefined) | inactive: 60%
CCOc1ccc(CCNC(=O)CCc2c(C)nc3c4c(C)cc(C)nc4nn3c2C)cc1 | inactive: 72%
COc1cccc(NC(=O)NCc2ccc3c(c2)CCN3C(=O)c2ccccc2)c1 | active: 52%
Cc1cccc(C(=O)Nc2sc3c(c2C(=O)NCc2ccco2)CCCC3)c1 | inactive: 83%
Cc1ccc2[nH]c(=O)c3cc(C(=O)N4CCN(c5ccccc5)CC4)sc3c2c1 | inactive: 81%
Cc1cc(C)c(Cn2c3ccccc3c3cnn(CC(=O)NC4CCC(C)CC4)c(=O)c32)c(C)c1 (centres undefined) | inactive: 71%
Cc1nc(-c2ccc(Cl)cc2)sc1CCNC(=O)C(=O)Nc1ccc(F)cc1F | inactive: 73%
CCCCN1C(=O)c2[nH]nc(-c3ccccc3O)c2C1c1cccc(OCc2ccccc2)c1 (centres undefined) | active: 18%
O=C(Cn1c(=O)oc2cc(S(=O)(=O)N3CCCCC3)ccc21)Nc1cccc(Cl)c1 | inactive: 81%

SMILES | survival
Cc1ccccc1NC(=O)c1ccc(F)c(S(=O)(=O)N(C)Cc2ccccc2)c1 | inactive: 84%
CCc1ccc(NC(=O)c2cc(C(C)=O)n3ccccc23)cc1 | inactive: 83%
CC(C)c1ccc(C2N3CC4(C)CN2CC(c2ccccc2)(C3)C4=O)cc1 (centres undefined) | inactive: 80%
CCCc1nn2c(=O)cc(COC(=O)c3cccc(NC(=O)COc4ccc(F)cc4)c3)nc2s1 | inactive: 99%
CCc1nn(-c2ccccc2)c2nc(-c3ccccc3OC)c3cc(OC)c(OC)cc3c12 | inactive: 107%
CCOC(=O)c1scc(-c2ccccc2)c1S(=O)(=O)Nc1ccccc1F | inactive: 120%
Clc1cccc(N2CCN(c3ncnc4c3nc3n4CCCCC3)CC2)c1 | active: 11%
CCOc1ccccc1CNS(=O)(=O)c1ccc2c(c1)CCCN2C(C)=O | inactive: 76%
O=C(Cn1ccn(-c2ccc(F)c(F)c2)c(=O)c1=O)Nc1ccccc1F | inactive: 65%
Cc1ccc(-c2nc3cc(C(C)C)ccc3o2)cc1NC(=O)c1cc2ccccc2o1 | active: 19%
CCc1ccc(CNC(=O)c2sc3ncccc3c2-n2c(C)ccc2C)cc1 | active: 0%
Cc1ccc(CN2CCc3nc(N4CCN(c5ncccn5)CC4)ncc3C2)cc1 | inactive: 117%
COc1cccc(NC(=O)C(C#N)Cc2cccs2)c1 (centres undefined) | inactive: 110%
Cc1ccc(C)n1-c1nnc(N2CCCC(C(=O)NCc3ccc(Cl)cc3)C2)s1 (centres undefined) | inactive: 71%
Cc1ccc(OCC(=O)Nc2ccc(S(=O)(=O)Nc3cc(C)nc(C)n3)cc2)c(Br)c1 | inactive: 97%
O=C(CCSc1nc(-c2ccco2)cc(C(F)(F)F)n1)Nc1cccc(O)c1 | inactive: 122%
O=C(Nc1ccc2oc(-c3cccnc3)nc2c1)c1cccc(Br)c1 | inactive: 62%
COc1cccc(NC(=O)CSc2nc3c(oc4ccccc43)c(=O)n2Cc2ccco2)c1 | inactive: 65%
Cc1ccc(N(CC(=O)NCCc2ccc(Cl)cc2)S(=O)(=O)N(C)C)cc1 | inactive: 101%
Cc1ccc(C(=O)N2CCC(C(=O)O)CC2)cc1 | inactive: 90%
CCOC(=O)C1CCN(c2ncnc3c2c(-c2ccccc2)cn3-c2cccc(C)c2)CC1 | inactive: 94%
Cc1oc2c(c(C)cc3oc(=O)c(CC(=O)NCCc4ccccc4F)c(C)c32)c1C | inactive: 69%
CCc1ccc(NC(=O)CN2CCN(Cc3ccccc3)S2(=O)=O)cc1 | inactive: 68%

SMILES | survival
Cc1ccccc1-n1c(SCC(=O)Nc2ccc(Cl)cc2F)nnc1-c1cc2occc2n1C | inactive: 88%
Cc1cccc(NC(=O)CCCn2c(C)c3cnn(-c4ccccc4)c(=O)c3c2C)c1C | inactive: 71%
CCOCc1cn(CC(=O)c2ccc(OC(C)=O)c(OC(C)=O)c2)c(C)nc1=N | inactive: 87%
CCOc1ccc(-n2c(Cc3ccccc3)nnc2SCc2nc(-c3ccccc3OC)no2)cc1 | inactive: 56%
COC(=O)c1cc2c(ccn2C)n1CC(=O)N(C1CCCCC1)C1CCCCC1 | inactive: 82%
CN1CCN(C(CNC(=O)c2cccc(F)c2)c2ccc3c(c2)OCO3)CC1 (centres undefined) | inactive: 80%
O=C(Nc1cccs1)Nc1cc(C(F)(F)F)ccc1Cl | active: 11%
Cc1ccc(Cl)cc1N1CCN(C(=O)c2cnc(N3CCOCC3)c3ccccc23)CC1 | inactive: 113%
Cc1cc(C)c(NC(=O)C2CCN(c3nc4ccccc4[nH]3)CC2)c(C)c1 | inactive: 102%
CC(C)CCNC(=O)CCCN1C(=O)c2ccccc2Sc2ncccc21 | inactive: 69%
COc1cc(-c2noc(CN3CCN(c4ccccc4)CC3)n2)cc(OC)c1OC | inactive: 84%
O=C(O)CNCc1nc2ccccc2[nH]1 | inactive: 95%
N[n+]1cnn(CC(=O)c2ccc(Cl)cc2)c1 | inactive: 76%
Cc1cccc(NC(=O)C(=O)NCC(c2ccc3c(c2)OCO3)N2CCOCC2)c1C (centres undefined) | inactive: 87%
CCOC(=O)c1ccccc1NC(=O)N1CCc2c(sc(C)c2CC)C1c1ccccc1 (centres undefined) | inactive: 124%
COc1ccccc1-c1nc2c(c(SCc3cccc(Cl)c3)n1)Cc1c(CO)cnc(C)c1O2 | inactive: 72%
Cc1cn2c(=O)cc(COC(=O)c3cccc(NC(=O)COc4ccccc4Cl)c3)nc2s1 | inactive: 99%
COc1cc(OC)cc(C(=O)Oc2c(Sc3ccccc3)c(C)nn2C(C)(C)C)c1 | active: 43%
CCc1ccc(C2c3c(-c4ccccc4O)n[nH]c3C(=O)N2Cc2ccncc2)cc1 (centres undefined) | active: 22%
CCOc1ccc(/C=C/c2nc(C#N)c(N(C)C)o2)cc1 | inactive: 102%
